Test results: PMC9935904

Molecular target: Lathyrus sativus β-L-ODAP synthase (LsBOS), N-terminal His-tag (Lathyrus sativus)

- pH optimum of the LsAAE3-LsBOS coupled reaction producing β-L-ODAP in vitro: 9 pH
Substance: Lathyrus sativus acyl-activating enzyme 3 (LsAAE3), N-terminal His-tag
